Assay results as given in publication PMC12136788.
Some of the results follow.

T1: UNK ZnF1-6 (called full-length) (human, UniProt Q9C0B0 30-357)
T1 sequence: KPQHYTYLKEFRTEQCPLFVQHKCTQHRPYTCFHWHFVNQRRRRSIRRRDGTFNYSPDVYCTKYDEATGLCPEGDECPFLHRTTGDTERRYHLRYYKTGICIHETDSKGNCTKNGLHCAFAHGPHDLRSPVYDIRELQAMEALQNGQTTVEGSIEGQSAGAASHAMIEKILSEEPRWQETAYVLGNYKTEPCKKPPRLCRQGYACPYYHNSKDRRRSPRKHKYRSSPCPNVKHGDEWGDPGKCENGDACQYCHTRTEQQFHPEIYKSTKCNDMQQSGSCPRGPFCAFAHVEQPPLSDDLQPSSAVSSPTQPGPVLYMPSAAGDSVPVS

B1: chr8:25429562:25429664:-|3pUTR|ENSG00000104756|unk|total|mutant (ssRNA)
RNA: GGGAGUUCUACAGUCCGACGAUCAGAAAAGCACUCAUUUAACCGAUGCCGGGAAACCCGAUAUUGCUGCCUUUUGAAUGGGGCCGGGGGGUUUACCUGGUUUUAUGACCAGGCACCGUAUCUAUUAUAUUUGCUUUUAAACCGCAACAGAGGAUUGAGCAUCA
B2: chr10:127452233:127452334:+|3pUTR|ENSG00000150760|msi1|FALSE|unique (ssRNA)
RNA: GGGAGUUCUACAGUCCGACGAUCGUAUAUAUGAUGGUUCUUAGAACUUGUUUUAAUUUUUGUGGUCCUUCCGUUUAUUAUAAUAGGCGUCCACCAAUGAUUAUCCAUAUGUGUUCUUAAUUUUUAACUGCUGGAAGUGUUAAACAACAGAGGAUUGAGCAUCA
B3: chrX:74588119:74588220:-|3pUTR|ENSG00000131263|msi1|FALSE|bound_elsewhere (ssRNA)
RNA: GGGAGUUCUACAGUCCGACGAUCUCCGAAAAUGCUGGGAUUACAGGCGUGAGCCACCAUGUCCAGCCAAAGUUGAGGUUUAUUAGUACUAUUAGAAACAAAAUUGAGCAAGUUAAGUUAAAAGUUUGCUGACUUUGUAUCAACCAACAGAGGAUUGAGCAUCA
B4: chr15:91915990:91916091:+|CDS|ENSG00000176463|msi1|total|mutant (ssRNA)
RNA: GGGAGUUCUACAGUCCGACGAUCGUCCUGACCACCCUGGAGCGCCGGUUCAACCUGCAGAGCGCUGACGUGGGUGUGAUCGCCCGCAGCUUCGAGAUCGGGAACCUGGCGCUCAUCCUCUUCGUGAGCUACUUCGGGGCACGCCAACAGAGGAUUGAGCAUCA
B5: chr13:20975083:20975184:-|CDS|ENSG00000150457|msi1|FALSE|unique (ssRNA)
RNA: GGGAGUUCUACAGUCCGACGAUCGCCAGCCCCCUACGUUCCCACCAUCAGCCACCCCAUGGACACCUCGAAUUUCGACCCCGUAGAUGAAGAAAGCCCUUGGAACGAUGCCAGCGAAGGUAGCACCAAGGCCUGGGACACACUCAACAGAGGAUUGAGCAUCA
B6: chr16:16142165:16142266:+|3pUTR|ENSG00000103222|msi1|total|mutant (ssRNA)
RNA: GGGAGUUCUACAGUCCGACGAUCAUUGAUGUGGGGUAAAUAUUAAGGAGAUGGCCUCAUGGGAAUUUGACCUUGACCCGAAACCGAGACUGAGAGUGAGCAACCAGCUGGAAGGUACUAUGCCAGUCCCCGCAGAAAAAUGUGCAACAGAGGAUUGAGCAUCA
B7: chr11:43405833:43405939:+|CDS|ENSG00000052841|unk|FALSE|unique (ssRNA)
RNA: GGGAGUUCUACAGUCCGACGAUCGGCCCAAACCCCUGACUGUUCCAUAACUGACUUCAGAAAAAGCCACACUCUGUCCUACUUAGUCAAAGAAUUAGAGGUUCGCAUGGAUCUGAAAGCCAAAAUGCCAGAUGACCAUGCACGCAACAGAGGAUUGAGCAUCA
B8: ENSG00000070961:be:win_3051|CDS|ENSG00000070961|bound_else_gene|NA|bound_elsewhere_windowed (ssRNA)
RNA: GGGAGUUCUACAGUCCGACGAUCUGUGGUACAGAUAAUAAUUGUGCAGUUUGGUGGAAAACCUUUCAGUUGUUCAGAACUUUCAAUAGAACAGUGGCUAUGGUCAAUAUUCCUAGGAAUGGGAACAUUACUCUGGGGCCAGCUCAACAGAGGAUUGAGCAUCA
B9: chr10:119072878:119073036:-|CDS|ENSG00000107581|unk|FALSE|unique (ssRNA)
RNA: GGGAGUUCUACAGUCCGACGAUCCUUUUAACUCCAUGGGUUAAAUUCCUGUGGGAGUCUUACAGGCAGUGUUUGGACCUUCUUAGAAACAAUUCUAGAGUAGAGCGCCUGUACCAUGAUAUUGCCCAGCAAGGUAAGAUGAGACAACAGAGGAUUGAGCAUCA
B10: chr1:71064632:71064733:-|3pUTR|ENSG00000132485|msi1|FALSE|bound_elsewhere (ssRNA)
RNA: GGGAGUUCUACAGUCCGACGAUCGCUAAGACAGGAUUACCUAGGCUUGCCUGAACUUUGGGCAUGGAAGAAAGACUGGAAACUAGUUGGAAACAACAUACUUAUGGAAAAGAAAGUCAGCCUUUUUAUGCUGUUAACAGAUGUCAACAGAGGAUUGAGCAUCA
B11: ENSG00000070961:be:win_1551|CDS|ENSG00000070961|bound_else_gene|NA|bound_elsewhere_windowed (ssRNA)
RNA: GGGAGUUCUACAGUCCGACGAUCAAUUUCUGUGAAUUGUGCUUAUACAUCAAAAAUAUUGCCACCAGAGAAAGAGGGUGGAUUACCUCGUCACGUUGGUAAUAAAACUGAAUGUGCCUUGUUGGGACUUCUUUUGGAUUUAAACAACAGAGGAUUGAGCAUCA
B12: chr19:12791443:12791544:+|5pUTR|ENSG00000171223|unk|total|mutant (ssRNA)
RNA: GGGAGUUCUACAGUCCGACGAUCGGGGGGCGCGGGGGCCCGGCUCCGGCGACGGCCAAUCGGAGCGCACUUCCGUGGCUGACCCGCGCGGUAUAAAGGCGUGUGGCUCAGGCUGAGCGGCUGGGACCUUGAGAGCGGCCAGGCCAACAGAGGAUUGAGCAUCA
B13: chr1:94897714:94897775:-|CDS_3pUTR|ENSG00000117519|msi1_unk|total|mutant (ssRNA)
RNA: GGGAGUUCUACAGUCCGACGAUCGCGAGUACCAGGAUGACUACCCCAGAGAUUACCAAUACCGCGACCAAGGCAUUGAUUAUCCGAUCCACACAGAAGGAGCUCAGUAUUCCGUCCUUUGUUUUUAUUCAGUGAGAACCAAGCCAACAGAGGAUUGAGCAUCA
B14: chr15:40213340:40213445:+|CDS|ENSG00000156970|unk|total|mutant (ssRNA)
RNA: GGGAGUUCUACAGUCCGACGAUCACACAGUGAAUAUAUUACCCAUGAAAUAACAGUGUUGAUUAUUUAUAACCUUUUGACAACCGUGGAGAUGCUACACAAAGCAGAAACCGUCCAUGGUGACUUGAGUCCAAGGUGUCUGAUCAACAGAGGAUUGAGCAUCA
B15: chr13:73693106:73693207:-|3pUTR|ENSG00000118922|msi1|total|mutant (ssRNA)
RNA: GGGAGUUCUACAGUCCGACGAUCCAGAGAACACAGAGAGGGACAAACACAGCCAUGAACCCCCUGGCACCCGUACCAGCACCCCGUUGGCAAGCCGUGGGUGCAUCUCUCAAGUGAAGUGCCGAUUUGUAUUCCGUCCUGCUUCAACAGAGGAUUGAGCAUCA
B16: chr12:285015:285116:-|3pUTR|ENSG00000073614|msi1|FALSE|bound_elsewhere (ssRNA)
RNA: GGGAGUUCUACAGUCCGACGAUCUAACAGGGCAUAUAGGAUGUGGCUUUUGUCCAGCUGAUAGUAGUUAGAGGCUUACAACUUAGGAGCAGCACCAACUGAAGGUGCUAAUUGCUUGGAUCUCCUUCAUUGGGAUAGUUGGAGCAACAGAGGAUUGAGCAUCA
B17: chr15:41480918:41481019:+|3pUTR|ENSG00000137815|msi1|total|mutant (ssRNA)
RNA: GGGAGUUCUACAGUCCGACGAUCCCUCCCCCAGGGCCCCACCCAGUGUGGGCCUGGGCUCUCUUGGGCUUUAUCCAUGUCUUCCGAUUUGUGUUUGCCUUUUGUUUUUUUAACCGCGCAGUUCAUUGGCCACUCUGCACGCAUCAACAGAGGAUUGAGCAUCA
B18: chr11:101473508:101473773:-|CDS|ENSG00000137672|control|control|control (ssRNA)
RNA: GGGAGUUCUACAGUCCGACGAUCUCCUCAAAUAAUAUCUGAAGGUCUUUAUGCAAUUGCUGUAGUUUUAAGUUUCUCUAGGAUAGCUUAUAUUUUACCAGCAAAUGAAAGCUUUGGACCUCUGCAGAUAUCACUUGGAAGAACCAACAGAGGAUUGAGCAUCA
B19: chr7:40094668:40094770:+|CDS|ENSG00000065883|unk|FALSE|unique (ssRNA)
RNA: GGGAGUUCUACAGUCCGACGAUCGGAUAUGGAGACAUUUACCUCAAUGCUGGUCCCAUGUUGUUUAGUGGAGACAAGGACCAUAGAUUUGAAUAUAGCCAUGGUCCUAUUGCAGUCCUGGCAAACAGCAGUGACCCUUCCACGCAACAGAGGAUUGAGCAUCA
B20: chr5:144162273:144162391:-|CDS|ENSG00000145817|unk|FALSE|unique (ssRNA)
RNA: GGGAGUUCUACAGUCCGACGAUCCCCAUAGGCUGGCAAAAUCCAGUUUGGCUAUGUAUACGGGAUCAGUGCAAUUGGAUGUCUAGGAAUGUUUUGUUUAUUAAACUUAAUGAGUAUGACAGGUGUUUCAUUUGGUUGUGUGGCCAACAGAGGAUUGAGCAUCA
B21: chr2:73226876:73226918:+|3pUTR|ENSG00000135632|msi1_unk|total|mutant (ssRNA)
RNA: GGGAGUUCUACAGUCCGACGAUCAUCUUCCGGGUCUCCACAGACUAACAUUGAAGUCUUCCAGAAACCUCGAGGAGCUGGGCCCGAUACUUCGAGAGCCGCCCUGUCUUGUCCCCUCCUACCCCCAGAUCCGCACCACCCCUCCAACAGAGGAUUGAGCAUCA
B22: ENSG00000104142:stop:overlap|stop_codon|ENSG00000104142|stop_codon|NA|stop_codon (ssRNA)
RNA: GGGAGUUCUACAGUCCGACGAUCCUAUCGACCGGCCGUUCAUCGACCCCCAGCGCUACGAGGAGGAGCAGCUCAGUUGGCUGUAGGAGGGUGUCACCUUUGAUGGGGGGUGGGCAAUGGGGAGCAGUGGCUUGAACCCACUUGCAACAGAGGAUUGAGCAUCA

Target: T1, UNK ZnF1-6 (called full-length)
Experiment: nsRBNS (natural sequence RNA bind-n-seq); RBNS binding buffer (assumed for nsRBNS): 25 mM Tris pH 7.5, 150 mM KCl, 3 mM MgCl2, 0.01% Triton X-100, 500 ug/ml BSA, 20 U/ml SUPERase-In, 4 C; UNK is unkempt and MSI1 is Musashi-1; names of the RNAs are library labels; protein concentration not given here; high values mean tight binding

Row | Binder | binding signal
1 | B1 | 0.998 enrichment R
2 | B2 | 1.5 enrichment R
3 | B3 | 0.995 enrichment R
4 | B4 | 0.82 enrichment R
5 | B5 | 1.17 enrichment R
6 | B6 | 0.757 enrichment R
7 | B7 | 1.07 enrichment R
8 | B8 | 0.678 enrichment R
9 | B9 | 0.561 enrichment R
10 | B10 | 0.503 enrichment R
11 | B11 | 0.29 enrichment R
12 | B12 | 0.828 enrichment R
13 | B13 | 0.515 enrichment R
14 | B14 | 0.443 enrichment R
15 | B15 | 1.01 enrichment R
16 | B16 | 1.02 enrichment R
17 | B17 | 0.65 enrichment R
18 | B18 | 0.473 enrichment R
19 | B19 | 0.608 enrichment R
20 | B20 | 0.673 enrichment R
21 | B21 | 0.958 enrichment R
22 | B22 | 0.537 enrichment R
